172 sequences from paper PMC4242493 can be followed below.

This is one part of the list. The list includes weakly bound sequences.

The test has as its target MaxL homodimer (UniProt P61244). The test can be described thus: universal protein-binding microarray (PBM). Conditions: PBS-based mixture, 10 nM His-tagged protein dimer, 2% milk, 200 ng/uL BSA, 50 ng/uL salmon testes DNA, 0.02% TX-100; detection with Alexa 488 anti-His …; high values mean tight binding; most listed sequences are background and not binding sites; double strand, one strand shown.
UniProt P61244, sequence (P61244 whole entry): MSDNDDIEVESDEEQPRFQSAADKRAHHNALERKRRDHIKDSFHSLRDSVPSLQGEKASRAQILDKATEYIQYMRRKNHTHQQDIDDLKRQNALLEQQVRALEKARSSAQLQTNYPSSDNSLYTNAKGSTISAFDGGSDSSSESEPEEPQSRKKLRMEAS
Regarding CGCCTGCC, the binding signal (normalized occupancy) is 0.0737.

Regarding GCACTCGA, the binding signal (normalized occupancy) is 0.0743.

For CCGCATCA, the binding signal (normalized occupancy) was 0.0853.

As for ATTCGGGA, the binding signal (normalized occupancy) amounted to 0.074.

For CCCGGGAC, the binding signal (normalized occupancy) was determined as 0.0661.

Turning to AGCCACTA, the binding signal (normalized occupancy) stood at 0.0753.

Turning to CCGGTTGA, the binding signal (normalized occupancy) turned out to be 0.0676.

As to TAGGCGGA, the binding signal (normalized occupancy) is 0.0713.

As to CCAAATAA, the binding signal (normalized occupancy) was 0.0748.

As to CGCACTGC, the binding signal (normalized occupancy) turned out to be 0.0783.

In the case of GAGATCCC, the binding signal (normalized occupancy) amounted to 0.0743.

For the sequence GCAATACC, the binding signal (normalized occupancy) worked out at 0.0814.

Consider CGCGGGAA, for which the binding signal (normalized occupancy) is 0.0721.

Consider AGTAACGA, for which the binding signal (normalized occupancy) came out at 0.0728.

CGCAATGC: the binding signal (normalized occupancy) turned out to be 0.0771.

In the case of CAGGGCGC, the binding signal (normalized occupancy) was found to be 0.0699.

Turning to GCTTCTAA, the binding signal (normalized occupancy) came to 0.0787.

Regarding GGTCAAAA, the binding signal (normalized occupancy) worked out at 0.0804.

Take CGTTCGAA: the binding signal (normalized occupancy) came out at 0.0691.

AGACTCAA: the binding signal (normalized occupancy) amounted to 0.0715.

Regarding CGGAGAAC, the binding signal (normalized occupancy) worked out at 0.0716.

Take ATATTGTG: the binding signal (normalized occupancy) turned out to be 0.0839.

For ACGTGATA, the binding signal (normalized occupancy) was found to be 0.11.

As for CGTGGCCC, the binding signal (normalized occupancy) came out at 0.0814.

In the case of CACCGTAG, the binding signal (normalized occupancy) amounted to 0.0674.

Turning to GACAGTGA, the binding signal (normalized occupancy) was 0.0726.

CATGACCG: the binding signal (normalized occupancy) worked out at 0.0795.

Turning to AGTTTCAC, the binding signal (normalized occupancy) came to 0.0734.

In the case of GTCTAACA, the binding signal (normalized occupancy) came to 0.0809.

Consider TATTAAAA, for which the binding signal (normalized occupancy) stood at 0.0724.

With CACCCCAG, the binding signal (normalized occupancy) amounted to 0.0797.

On to CGTTGCAC, for which the binding signal (normalized occupancy) came to 0.0764.

For GAGGGCTA, the binding signal (normalized occupancy) turned out to be 0.0757.

ACAACGTA: the binding signal (normalized occupancy) stood at 0.077.

For the sequence GAGTTTTA, the binding signal (normalized occupancy) is 0.0722.

As to AAGTAACA, the binding signal (normalized occupancy) came to 0.0792.

CAGGACAC: the binding signal (normalized occupancy) turned out to be 0.0796.

GACAGGAA: the binding signal (normalized occupancy) was determined as 0.0709.

For ACAGCTGG, the binding signal (normalized occupancy) is 0.0716.

With CAGCTTAA, the binding signal (normalized occupancy) worked out at 0.0688.

For the sequence AATGTAAA, the binding signal (normalized occupancy) came to 0.0767.

In the case of CACGCGCG, the binding signal (normalized occupancy) turned out to be 0.133.

Take CGACTGGC: the binding signal (normalized occupancy) stood at 0.0665.

For CCTGCCTA, the binding signal (normalized occupancy) is 0.0773.

As for TCATGTCA, the binding signal (normalized occupancy) was determined as 0.0863.

Regarding AACCCGTG, the binding signal (normalized occupancy) was 0.0816.

Turning to GTATTCGA, the binding signal (normalized occupancy) was found to be 0.0788.

With AACCTGGG, the binding signal (normalized occupancy) was 0.0724.

Regarding ACACGTTC, the binding signal (normalized occupancy) is 0.102.

In the case of GCTTTTAA, the binding signal (normalized occupancy) is 0.0711.

With ATCATGCG, the binding signal (normalized occupancy) came to 0.105.

Take GCACACCC: the binding signal (normalized occupancy) is 0.0923.

Consider AATGTCGC, for which the binding signal (normalized occupancy) came to 0.0811.

In the case of CACCGGGG, the binding signal (normalized occupancy) amounted to 0.0704.

In the case of CTATTATA, the binding signal (normalized occupancy) was found to be 0.0793.

As to CGGCGACG, the binding signal (normalized occupancy) was 0.0681.

As for AGTCCCGG, the binding signal (normalized occupancy) came to 0.0647.

On to CAGATTGG, for which the binding signal (normalized occupancy) came out at 0.0718.

As to CACTAGTG, the binding signal (normalized occupancy) is 0.0745.

Turning to ACGGGTCG, the binding signal (normalized occupancy) was 0.0755.

For CCCGGAGC, the binding signal (normalized occupancy) is 0.0663.

As to AAACCTAA, the binding signal (normalized occupancy) came out at 0.0767.

As to TAACTAGA, the binding signal (normalized occupancy) turned out to be 0.0765.

GGATTGGA: the binding signal (normalized occupancy) is 0.0752.

As to AACATCGC, the binding signal (normalized occupancy) turned out to be 0.0768.

Take AGCCCTTG: the binding signal (normalized occupancy) worked out at 0.0731.

On to GCTCGCCC, for which the binding signal (normalized occupancy) was 0.0696.

Take CATTTCGG: the binding signal (normalized occupancy) was 0.0712.

For CAGGTACA, the binding signal (normalized occupancy) stood at 0.0806.

For the sequence ATATGTAC, the binding signal (normalized occupancy) amounted to 0.0941.

On to CTGTTCTC, for which the binding signal (normalized occupancy) worked out at 0.0736.

As for CCGTGCGA, the binding signal (normalized occupancy) is 0.0776.

With ACTTATTC, the binding signal (normalized occupancy) amounted to 0.0737.

For the sequence GCCAACTA, the binding signal (normalized occupancy) came out at 0.0719.

For the sequence AAAATCCA, the binding signal (normalized occupancy) came out at 0.0778.

With ATACGCCC, the binding signal (normalized occupancy) was determined as 0.0761.

Regarding ACAGAGCA, the binding signal (normalized occupancy) came to 0.0728.

CCTGTACG: the binding signal (normalized occupancy) worked out at 0.0725.

For the sequence ACTAACAC, the binding signal (normalized occupancy) was 0.0782.

In the case of TAAATAAA, the binding signal (normalized occupancy) is 0.0766.

For AGCTAACT, the binding signal (normalized occupancy) was 0.0663.

For CTGACTCC, the binding signal (normalized occupancy) was determined as 0.0757.

For the sequence CGCAGCCC, the binding signal (normalized occupancy) was found to be 0.0668.

On to CGAGTTGC, for which the binding signal (normalized occupancy) is 0.0732.

With ACTGGCTA, the binding signal (normalized occupancy) was determined as 0.07.

Turning to AGCGAATG, the binding signal (normalized occupancy) amounted to 0.0731.

CGGCGGCC: the binding signal (normalized occupancy) came out at 0.0722.

Take AACTCTGA: the binding signal (normalized occupancy) was 0.0654.

As for CATTCACA, the binding signal (normalized occupancy) came to 0.086.

For ACCCTCGA, the binding signal (normalized occupancy) is 0.0805.

For the sequence ATCTTAGC, the binding signal (normalized occupancy) was 0.0785.

Turning to CGAAGGCC, the binding signal (normalized occupancy) stood at 0.0659.

CACTTCTA: the binding signal (normalized occupancy) was found to be 0.078.

TGGCTGAA: the binding signal (normalized occupancy) is 0.0759.

CAGCTCTA: the binding signal (normalized occupancy) came out at 0.0723.

As to CACGCGAG, the binding signal (normalized occupancy) worked out at 0.111.

Take GTGTTGTA: the binding signal (normalized occupancy) came out at 0.0853.

As for CGCAAGCG, the binding signal (normalized occupancy) stood at 0.0656.

For the sequence CACACTTC, the binding signal (normalized occupancy) was 0.0843.

CCGCAGGA: the binding signal (normalized occupancy) amounted to 0.0669.

With GGAAATAA, the binding signal (normalized occupancy) is 0.0786.

As to ATGATCCA, the binding signal (normalized occupancy) was found to be 0.082.

AACGAACC: the binding signal (normalized occupancy) worked out at 0.07.

GGTTGGCA: the binding signal (normalized occupancy) stood at 0.0738.

As for AATAATGC, the binding signal (normalized occupancy) was 0.0789.

For ACCTGAGT, the binding signal (normalized occupancy) was found to be 0.0721.

Take AACGGCAT: the binding signal (normalized occupancy) turned out to be 0.0766.

Take AAGTGTGA: the binding signal (normalized occupancy) was found to be 0.0854.

CGCAGCGC: the binding signal (normalized occupancy) was 0.0689.

With CTCCTGTA, the binding signal (normalized occupancy) worked out at 0.0767.

With ACTGGACC, the binding signal (normalized occupancy) was determined as 0.0684.

In the case of CATCGGTC, the binding signal (normalized occupancy) was 0.0723.

Consider CTGACGCC, for which the binding signal (normalized occupancy) was determined as 0.0722.

As for ACGGTACC, the binding signal (normalized occupancy) amounted to 0.0705.

Take GACATCAC: the binding signal (normalized occupancy) came out at 0.0779.

Take GGAGAACC: the binding signal (normalized occupancy) stood at 0.0739.

With AACTCCAA, the binding signal (normalized occupancy) stood at 0.0704.

With TATTAAGA, the binding signal (normalized occupancy) amounted to 0.0731.

CCACGGAG: the binding signal (normalized occupancy) was 0.0698.

Consider ACGAAGCA, for which the binding signal (normalized occupancy) came to 0.0771.

For the sequence ATACAAGA, the binding signal (normalized occupancy) turned out to be 0.076.

Turning to AAAATTTC, the binding signal (normalized occupancy) worked out at 0.0702.

CGCCCGGA: the binding signal (normalized occupancy) amounted to 0.068.

For the sequence CACCTTCA, the binding signal (normalized occupancy) turned out to be 0.0758.

Regarding AAAGCTGG, the binding signal (normalized occupancy) is 0.0673.

On to ACGCCTCT, for which the binding signal (normalized occupancy) is 0.0792.

Regarding CACGATAC, the binding signal (normalized occupancy) came to 0.0922.

On to ATTGACGA, for which the binding signal (normalized occupancy) is 0.0813.

Consider CATAGGAG, for which the binding signal (normalized occupancy) is 0.0813.

In the case of CCTTGTCC, the binding signal (normalized occupancy) was 0.0743.

On to AATCTCCC, for which the binding signal (normalized occupancy) was determined as 0.0748.

For the sequence CGCGTCTC, the binding signal (normalized occupancy) was found to be 0.0739.

As for CTGTGAAC, the binding signal (normalized occupancy) is 0.0752.

Regarding CCCTTAAA, the binding signal (normalized occupancy) came out at 0.0743.

For CTTTCGGA, the binding signal (normalized occupancy) is 0.0677.

Consider CAACGTTC, for which the binding signal (normalized occupancy) amounted to 0.0755.

On to CGGCTTAA, for which the binding signal (normalized occupancy) was 0.0644.

For the sequence CGGTGAAA, the binding signal (normalized occupancy) worked out at 0.0722.

Regarding CTCGTCGC, the binding signal (normalized occupancy) amounted to 0.0714.

Turning to ACCGGCGG, the binding signal (normalized occupancy) turned out to be 0.0729.

Regarding CATACGAC, the binding signal (normalized occupancy) amounted to 0.0821.

Turning to GCACTTCA, the binding signal (normalized occupancy) was found to be 0.0725.

Turning to CTTGTTGA, the binding signal (normalized occupancy) was 0.0734.

With CCCTACAA, the binding signal (normalized occupancy) came to 0.0782.

Regarding ATTGTTTC, the binding signal (normalized occupancy) stood at 0.0729.

GGGCAACA: the binding signal (normalized occupancy) worked out at 0.0764.

CGTATAAG: the binding signal (normalized occupancy) was found to be 0.0761.

Turning to CGGTCGTC, the binding signal (normalized occupancy) was found to be 0.0684.

For the sequence ACGCGCAG, the binding signal (normalized occupancy) was found to be 0.0787.

In the case of AATGGGCA, the binding signal (normalized occupancy) was found to be 0.0791.

Take ATCAGTCG: the binding signal (normalized occupancy) amounted to 0.0744.

For GCTAGGTA, the binding signal (normalized occupancy) was found to be 0.0747.

Consider CATTTAAC, for which the binding signal (normalized occupancy) was found to be 0.0804.

In the case of CCCCCATC, the binding signal (normalized occupancy) was found to be 0.0843.

Turning to ATCATCAG, the binding signal (normalized occupancy) was found to be 0.0786.

Take CCGCAAGA: the binding signal (normalized occupancy) turned out to be 0.0718.

With AATCTAAC, the binding signal (normalized occupancy) stood at 0.0749.

Take CTGCACGC: the binding signal (normalized occupancy) came to 0.0997.

Regarding AAACCTAC, the binding signal (normalized occupancy) stood at 0.0764.

With CACCTCGG, the binding signal (normalized occupancy) was determined as 0.0772.

As for AAAATTTA, the binding signal (normalized occupancy) turned out to be 0.0675.

For GGGTCCGA, the binding signal (normalized occupancy) was 0.0737.

Consider CAATCCGA, for which the binding signal (normalized occupancy) was found to be 0.074.

With TGGGAACA, the binding signal (normalized occupancy) is 0.0807.

ATTGTTAG: the binding signal (normalized occupancy) came to 0.0774.

For the sequence ATGAAAAT, the binding signal (normalized occupancy) came out at 0.0785.

As for ATGGGACG, the binding signal (normalized occupancy) is 0.0781.

Regarding AAGGTGCT, the binding signal (normalized occupancy) is 0.0733.

AGACTCAC: the binding signal (normalized occupancy) was 0.0696.

Regarding ACGTCCAA, the binding signal (normalized occupancy) came to 0.0765.

Regarding ACATAGAT, the binding signal (normalized occupancy) amounted to 0.0774.

As to AATTGTGG, the binding signal (normalized occupancy) was 0.0762.
